In PubChem BioAssay (NCI):
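Method: 48-hour compound exposure of cells in 96-well plates, five concentrations, linear interpolation of endpoints. Here, GI50 denotes the concentration required for 50% inhibition of growth. TGI: concentration producing complete growth inhibition.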

The molecules below were run on NCI-H322M lung (assay: NCI tumour cell line growth inhibition, 48 h).
Work on ClCc1ccccc1Cn1cnc2ncnc(Cl)c21 yielded a GI50 of 4.63 µM and a TGI of 15.8 µM.
Work on CC(=O)OC12C=C(C)C(C(C)C1)C1C(=O)N(CCN3CCCCC3)C(=O)C12 (stereo not given) yielded a GI50 greater than 50 µM and a TGI greater than 50 µM.
For COc1cc2nc(-c3cccs3)nc(Nc3cccc(Cl)c3)c2cc1OC, the TGI was greater than 100 µM.
Oc1ccc(-c2nc3ccccc3s2)cc1 was tested, and the TGI was greater than 100 µM.
CC1=C(C(=O)Nc2ccccc2)C(c2ccccc2Cl)C(C(=O)Nc2ccccc2)=C(C)N1 gave a TGI greater than 100 µM.
In the case of CCOc1cc2c(cc1O)C(O)C[C@@H]1[C@@H]2CC[C@]2(C)[C@@H](O)CC[C@@H]12 (stereo not given in full), the TGI was greater than 100 µM.
Molecule COc1ccccc1NC(=O)CC(=O)NN has a TGI greater than 100 µM.
In the case of CN(C)CCCn1c(=O)c2ccccc2c2cnc3[nH]ccc3c21, the GI50 was 1.83 µM and the TGI was 13.2 µM.
CC(C)(C)C1=C(Br)C(O)(C(C)(C)C)OP1(=O)c1ccccc1 (stereo not given) was tested, and the TGI was greater than 100 µM.
With Cc1cc(N(CCOS(C)(=O)=O)CCOS(C)(=O)=O)ccc1C(=O)O the GI50 was greater than 100 µM and the TGI was greater than 100 µM.
CC(C)OC(=S)Nc1ccc(Cl)c(/C=N/OC(C)(C)C)c1 showed a TGI of 45.5 µM.
Molecule O=C(Nc1nn[nH]n1)c1nc(-c2ccccc2)cc(=O)[nH]1 has a TGI greater than 100 µM.
For Cc1c2cccc-2ccc2c3ccccc3n(C(=O)c3ccc(Cl)cc3)c12, the TGI was greater than 100 µM.
Molecule COc1ccc2nc(C(=O)c3ccccc3)c(C)cc2c1 has a TGI greater than 100 µM.
With NCCSCCC(=O)O the TGI was greater than 100 µM.
CCN(CC)CC1CCCCN1CC(=O)N1CC(C)C(=O)Nc2ccccc21 (stereo not given) gave a TGI greater than 100 µM.
Molecule Cc1cc(C)c(C#N)c(Sc2nc(C)c([N+](=O)[O-])c(C)c2C#N)n1 has a GI50 of 10.9 µM and a TGI of 39.2 µM.
CC(C)Oc1cccc(N2C(Nc3ccccc3)=Nc3ccncc3S2(=O)=O)c1 gave a TGI greater than 100 µM.
Molecule Cc1ccc(N=C[N-]c2ccc(C)cc2)cc1.Cc1ccc(N=C[N-]c2ccc(C)cc2)cc1.O=C([O-])C(F)(F)F.O=C([O-])C(F)(F)F.[OH3+].[OH3+].[Rh+2].[Rh+2] has a GI50 of 48.7 µM and a TGI greater than 100 µM.
Cc1ccccc1NC(=O)CC(=O)NNC(Sc1ccccc1)c1cc(N=Nc2ccc(Br)cc2)ccc1O (stereo not given) showed a TGI greater than 10 µM.
In the case of O=c1[nH]nc(Cc2ccc(Cl)cc2)n1/N=C/c1ccc([N+](=O)[O-])o1, the TGI was 15.1 µM.
CSc1cnc2ccccc2c1Sc1c[nH]c2ccccc2c1=O was tested, and the TGI was 43.3 µM.
CC(C)(C)OC(=O)c1ccc(NCC2=C(Br)C(=O)C=CC2=O)cc1 showed a TGI greater than 100 µM.
In the case of O=[N+]([O-])c1ccc(Cl)c(CNc2ncnc3c2ncn3C2CCCCO2)c1 (stereo not given), the TGI was greater than 100 µM.
With CC(=O)C(C)(C)CCC(C)(C)C(C)=O the TGI was greater than 100 µM.
For Clc1ccc(-c2c3ccc(=[N+]4CCCCC4)cc-3oc3cc(N4CCCCC4)ccc23)cc1, the GI50 was 0.0651 µM and the TGI was 0.302 µM.
With Cn1cc(C2=C(c3c[nH]c4ccccc34)C(=O)NC2=O)c2ccccc21 the GI50 was 2.05 µM and the TGI was greater than 9.85 µM.
In the case of CC(C)CCOC(=O)NC(Nc1ccc(F)cc1)(C(F)(F)F)C(F)(F)F, the TGI was greater than 100 µM.
In the case of CCOC(=O)c1cc(-c2ccc(-c3cc(C(=O)OCC)c(C#N)c(N)c3C#N)cc2)c(C#N)c(N)c1C#N, the TGI was greater than 100 µM.
COc1cc(OC)cc(C2C3=C(COC3=O)Nc3cc(OC)ccc32)c1 (stereo not given) gave a GI50 of less than 0.01 µM and a TGI greater than 100 µM.
For O=c1c2nc(-c3ccccc3)oc2n(-c2ccccc2)c(=O)n1-c1ccccc1, the TGI was greater than 46.4 µM.
Molecule OC(NN=C1CCCC1)(C(F)(F)Cl)C(F)(F)Cl has a TGI greater than 10 µM.
CCOC(=O)c1cc(Br)c(-c2onc(C)c2Br)[nH]1 gave a TGI greater than 100 µM.
N#CC(C(=O)CCCC(=O)Nc1ccc(Cl)cc1Cl)c1ccccc1 (stereo not given) gave a TGI greater than 100 µM.
For CCCCCCCCCCCCC(O)c1ccco1 (stereo not given), the GI50 was 22.8 µM and the TGI was 40.8 µM.
CCOC(=O)Nc1ccc(S(=O)(=O)Nn2cnnc2)cc1 showed a TGI greater than 100 µM.
O=C(O)/C(Cc1ccnc2ccccc12)=N\O showed a TGI greater than 100 µM.
COc1ccc(-c2cncn2-c2cc(OC)c(OC)c(OC)c2)cc1 showed a GI50 of 0.135 µM.
Cc1ccc2nc(NC(=O)C(=O)C(C#N)c3ccc(Cl)cc3)sc2c1 (stereo not given) showed a TGI greater than 50 µM.
In the case of C#C[C@@]1(O)[C@@H](CO)O[C@@H](n2cc(I)c3c(N)ncnc32)[C@@H]1O, the GI50 was 0.526 µM and the TGI was 17.9 µM.
For CCCCCCSSC(=S)N(CC)CC, the GI50 was 29.8 µM and the TGI was greater than 100 µM.
Molecule CCN(CC)C(=O)Cn1c2c(c3ccccc31)CCCC2 has a TGI greater than 100 µM.
In the case of [N-]=[N+]=NCCCn1c2c(c3ccc([N+](=O)[O-])cc3c1=O)C(=O)c1cc(Br)ccc1-2, the GI50 was greater than 100 µM and the TGI was greater than 100 µM.
In the case of Cc1ccc(S(=O)(=O)NC(=O)C2=C3SCCN3C(=O)N(S(=O)(=O)c3ccc(C)cc3)C2c2ccccc2)cc1 (stereo not given), the TGI was greater than 100 µM.
CCCCC#Cc1c(I)n(C)c(=O)[nH]c1=O gave a GI50 of 11.8 µM and a TGI of 24.1 µM.
For CCOC1=C(c2ccccc2)N2CCCCC2O1 (stereo not given), the TGI was greater than 100 µM.
Molecule N#CC1=C(N)Oc2c(ccc3ccccc23)C1c1cc(=O)oc2ccc(Cl)cc12 (stereo not given) has a GI50 of 4.9 µM and a TGI greater than 100 µM.
Cc1ccc(-c2nc(/C=N/Nc3cc(C)nc4ccc(Cl)cc34)c(C)o2)cc1 was tested, and the GI50 was 1.73 µM and the TGI was 3.71 µM.
Nc1nc2c(C(=O)NCc3cccs3)nnn2c2cccc(Cl)c12 was tested, and the TGI was greater than 100 µM.
Molecule COC1=CC(=O)N(C)C(O)C1(C#N)OC1OC(CO)C(O)C(O)C1O (stereo not given) has a TGI greater than 100 µM.
Cc1cc(-c2c(F)cc3c4nn([C@H]5CC[C@@H](N(C)C)CC5)c(=O)c-4cn(C4CC4)c3c2F)cc(C)n1 was tested, and the TGI was 5.94 µM.
NC(N)=NC1C(O)C(O)C(O)C(N=C(N)N)C1O (stereo not given) was tested, and the TGI was greater than 100 µM.
C#CCOC(=O)c1ccc(OC(C)=O)cc1 was tested, and the TGI was greater than 100 µM.
CCCCCCCCC#CCCCCCCCCCC[C@@H]1C(=O)O[C@H](C)[C@@H]1O (tested in a mixture with another compound) gave a TGI greater than 100 µM.
CC1(C)O[C@@H](C[C@]2(C#N)C[C@H](CCl)OC(C)(C)O2)C[C@@H](C#N)O1 gave a TGI greater than 100 µM.
Work on Cc1ccc(NC(=O)C(=O)CC(=O)c2c(C)n([O-])c3ccccc3[n+]2=O)cc1C yielded a TGI greater than 100 µM.
Cc1c(C#N)cccc1[C@@H](C)Nc1nnc(C)c2cnc(N3CCOCC3)cc12 was tested, and the GI50 was 9.61 µM and the TGI was greater than 100 µM.
O=C(O)CCNS(=O)(=O)c1ccc2ccccc2c1 was tested, and the TGI was greater than 100 µM.
Work on COc1cc(Oc2nc3cc(F)c(F)cc3nc2-c2ccccc2)cc(OC)c1OC yielded a TGI greater than 100 µM.
CC(=O)OCC1OC(n2c(C)c(C)c(C)c(C#N)c2=S)C(OC(C)=O)C(OC(C)=O)C1OC(C)=O (stereo not given) gave a TGI greater than 100 µM.
Work on Cc1cccc(C(=O)O)c1C(=O)c1cccc2ccccc12 yielded a TGI greater than 100 µM.
With O=C1C2C=CC(n3[nH]c(=O)n(Cc4ccccc4)c3=O)CC2C(=O)N1c1ccc(Br)cc1 (stereo not given) the TGI was greater than 100 µM.
In the case of CC/C(Cc1ccccc1)=C(\c1ccc(OCCN2CCCC2)cc1)c1ccc(OC(=O)NCc2ccccc2)cc1, the GI50 was 1.91 µM and the TGI was 3.97 µM.
Molecule CCOC(=O)C1=C(O)c2ccc(C)cc2C(=O)C1=O has a TGI greater than 100 µM.
COc1nc(C#CC2CCCCC2)nc(OC)n1 gave a TGI of 24.6 µM.
O=C(c1ccc(Cl)cc1)N1CCN=C1c1cc2ccccc2c2ccccc12 gave a TGI of 25.6 µM.
In the case of COc1cc(N(CCC#N)CCC#N)ccc1/C=N\NC(=O)c1ccc(C)cc1, the TGI was greater than 100 µM.
Cc1ncc(COP(=O)(O)O)c(/C=C2\SC(=S)NC2=O)c1O gave a TGI greater than 100 µM.
In the case of CCCc1cc(=O)n2c(C(=O)Nc3ccc(F)cc3)c(C(=O)Nc3ccc(F)cc3)sc2n1, the GI50 was 152 µM and the TGI was greater than 160 µM.
Molecule Oc1ccc(Oc2cc3c(cc2Oc2ccc(O)cc2)-c2nc-3nc3[nH]c(nc4nc(nc5[nH]c(n2)c2cc(Oc6ccc(O)cc6)c(Oc6ccc(O)cc6)cc52)-c2cc(Oc5ccc(O)cc5)c(Oc5ccc(O)cc5)cc2-4)c2cc(Oc4ccc(O)cc4)c(Oc4ccc(O)cc4)cc32)cc1 has a TGI greater than 100 µM.
Molecule COCCOc1cc(C)cc(/C=C(C)/C=C/C2=C(C)CCCC2(C)C)n1 has a TGI greater than 100 µM.
